The other results are listed elsewhere or left out. Repeats are few or missing, and single values can be far off.

Experimental findings from the supplement of paper PMC4604168 (melanoma cell lines) are described below.
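Further: cells treated in 1,536-well plates, then fixed and DAPI-stained, with nuclei counted from automated high-throughput microscope images.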

This experiment has as its system WM1716. Briefly: cell count relative to DMSO control; melanoma cells; higher = more viable cells. Particulars: library dose: standard library concentration; 72 h.
Molecule `CC1(C)NC(=O)N(c2ccc([N+](=O)[O-])c(C(F)(F)F)c2)C1=O` [nilutamide] + COc1ccc(-c2ccc3c(N4CCOCC4)nc(N4C[C@@H](C)O[C@@H](C)C4)nc3n2)cc1CO [KU0063794] (first compound 5 µM, partner dose 0.1 µM) yielded a cell count of 102%. Consider `O=c1[nH]nc(Sc2ncc([N+](=O)[O-])s2)n1-c1ccc2c(c1)OCCO2` + C[C@@H](Oc1cc(-c2cnn(C3CCNCC3)c2)cnc1N)c1c(Cl)ccc(F)c1Cl [Crizotinib] (first compound 1 µM, partner dose 1 µM), for which the cell count was 86.6%.

`O=C(Nc1cccc(Cl)c1)Nc1ncc(CCNc2ncnc3ccsc23)s1` + Cc1cc([N+](=O)[O-])ccc1NS(=O)(=O)c1cc(Cl)ccc1Cl [FH535] (first compound 0.004 µM, partner dose 5 µM) registered a cell count of 73%. As to `O=c1[nH]nc(Sc2ncc([N+](=O)[O-])s2)n1-c1ccc2c(c1)OCCO2` + O=S(=O)(c1ccccc1)N(CC(F)(F)F)c1ccc(C(O)(C(F)(F)F)C(F)(F)F)cc1 [T0901317] (first compound 1 µM, partner dose 7 µM), the cell count was 126%.

Turning to `COc1cc(Nc2ncc(F)c(Nc3ccc4c(n3)NC(=O)C(C)(C)O4)n2)cc(OC)c1OC` [Tamatinib] + O=c1cc(-c2cccc3c2Sc2ccccc2S3)oc(N2CCOCC2)c1 [KU55933] (first compound 2 µM, partner dose 5 µM), the cell count turned out to be 70.8%. The same measure for `O=C(O)c1ccc(-c2c[nH]c3ncc(-c4ccccc4)cc23)cc1C1CCCC1` + O=C1NC(=O)/C(=C/c2ccc(-c3ccc(F)cc3O)o2)S1 [AS252424] (first compound 0.8 µM, partner dose 5 µM): 85.8%. The same measure for `O=c1[nH]nc(Sc2ncc([N+](=O)[O-])s2)n1-c1ccc2c(c1)OCCO2` + CCCCCCCCCCCC1=C(O)C(=O)C=C(O)C1=O [Embelin] (first compound 1 µM, partner dose 6 µM): 72.6%. In turn, `O=c1[nH]nc(Sc2ncc([N+](=O)[O-])s2)n1-c1ccc2c(c1)OCCO2` + Oc1cc(-c2nc(-c3ccccc3)[nH]c2-c2ccncc2)ccc1Cl [L779450] (first compound 1 µM, partner dose 1 µM) displayed a cell count of 71.7%. Molecule `O=c1[nH]nc(Sc2ncc([N+](=O)[O-])s2)n1-c1ccc2c(c1)OCCO2` + Oc1nc(-c2ccc(C(F)(F)F)cc2)nc2c1CSCC2 [XAV939] (first compound 1 µM, partner dose 10 µM) yielded a cell count of 33.7%.

With `O=c1[nH]nc(Sc2ncc([N+](=O)[O-])s2)n1-c1ccc2c(c1)OCCO2` + COC(=O)c1sccc1S(=O)(=O)Nc1ccc(Nc2ccccc2)cc1OC [GSK0660] (first compound 1 µM, partner dose 5 µM), the cell count came out at 86.9%. `O=C(Nc1cccc(Cl)c1)Nc1ncc(CCNc2ncnc3ccsc23)s1` + COc1ccc2c(c1)CCC1C2CCC2(C)C(NCCCCCCN3C(=O)C=CC3=O)CCC12 [U73122] (first compound 0.004 µM, partner dose 2 µM) returned a cell count of 58.4%. Take `COc1cc(Nc2ncc(F)c(Nc3ccc4c(n3)NC(=O)C(C)(C)O4)n2)cc(OC)c1OC` [Tamatinib] + Oc1cc(-c2nc(-c3ccccc3)[nH]c2-c2ccncc2)ccc1Cl [L779450] (first compound 2 µM, partner dose 1 µM): the cell count came out at 44.4%. As to `O=c1[nH]nc(Sc2ncc([N+](=O)[O-])s2)n1-c1ccc2c(c1)OCCO2` + O=C(Nc1ccccc1)c1cc([N+](=O)[O-])ccc1Cl [GW9662] (first compound 1 µM, partner dose 10 µM), the cell count was 81%. The same measure for `COc1cc(Nc2ncc(F)c(Nc3ccc4c(n3)NC(=O)C(C)(C)O4)n2)cc(OC)c1OC` [Tamatinib] + COc1cc2ncnc(Nc3ccc(Oc4ccccc4)cc3)c2cc1OC [SrcI1] (first compound 2 µM, partner dose 10 µM): 50.2%.

Turning to `O=c1[nH]nc(Sc2ncc([N+](=O)[O-])s2)n1-c1ccc2c(c1)OCCO2` + CC(C)CCN1c2nc(Nc3cc(F)c(O)c(F)c3)ncc2N(C)C(=O)C1C [BID1870] (first compound 1 µM, partner dose 1 µM), the cell count amounted to 91.9%.

Molecule `O=C(O)c1ccc(-c2c[nH]c3ncc(-c4ccccc4)cc23)cc1C1CCCC1` + COC(=O)c1sccc1S(=O)(=O)Nc1ccc(Nc2ccccc2)cc1OC [GSK0660] (first compound 0.8 µM, partner dose 5 µM) registered a cell count of 89.8%.

In turn, `O=c1[nH]nc(Sc2ncc([N+](=O)[O-])s2)n1-c1ccc2c(c1)OCCO2` + Cn1cc(/C=C2\C(=O)Nc3cccnc32)c2ccccc21 [GW441756] (first compound 1 µM, partner dose 2 µM) had a cell count of 90.8%. `O=c1[nH]nc(Sc2ncc([N+](=O)[O-])s2)n1-c1ccc2c(c1)OCCO2` + COc1ccc(-c2ccc3c(N4CCOCC4)nc(N4C[C@@H](C)O[C@@H](C)C4)nc3n2)cc1CO [KU0063794] (first compound 1 µM, partner dose 0.1 µM): the cell count is 108%.

`Cn1cncc1[C@@](N)(c1ccc(Cl)cc1)c1ccc2c(c1)c(-c1cccc(Cl)c1)cc(=O)n2C` [tipifarnib] + COc1ccc2c(c1)CCC1C2CCC2(C)C(NCCCCCCN3C(=O)C=CC3=O)CCC12 [U73122] (first compound 0.05 µM, partner dose 2 µM): the cell count amounted to 42.3%. `O=c1[nH]nc(Sc2ncc([N+](=O)[O-])s2)n1-c1ccc2c(c1)OCCO2` + CCN(CC)CCCCNc1ncc2cc(-c3cc(OC)cc(OC)c3)c(NC(=O)NC(C)(C)C)nc2n1 [PD173074] (first compound 1 µM, partner dose 0.5 µM): the cell count was determined as 114%. In turn, `O=c1[nH]nc(Sc2ncc([N+](=O)[O-])s2)n1-c1ccc2c(c1)OCCO2` + COc1cc2ncnc(Nc3ccc(Oc4ccccc4)cc3)c2cc1OC [SrcI1] (first compound 1 µM, partner dose 10 µM) came in with a cell count of 75.8%. The same measure for `O=c1[nH]nc(Sc2ncc([N+](=O)[O-])s2)n1-c1ccc2c(c1)OCCO2` + O=C1NC(=O)/C(=C/c2ccc(-c3ccc(F)cc3O)o2)S1 [AS252424] (first compound 1 µM, partner dose 5 µM): 102%; for `O=c1[nH]nc(Sc2ncc([N+](=O)[O-])s2)n1-c1ccc2c(c1)OCCO2` + CCc1ccc(CCOc2ccc(CC3SC(=O)NC3=O)cc2)nc1 [pioglitazone] (first compound 1 µM, partner dose 10 µM): 91.7%; for `O=c1[nH]nc(Sc2ncc([N+](=O)[O-])s2)n1-c1ccc2c(c1)OCCO2` + O=C(O)C(=O)Nc1sc2c(c1C(=O)O)CCNC2 [TCS401] (first compound 1 µM, partner dose 8.33333 µM): 88%.

Turning to `O=c1[nH]nc(Sc2ncc([N+](=O)[O-])s2)n1-c1ccc2c(c1)OCCO2` + Nc1cccc2c1CN(C1CCC(=O)NC1=O)C2=O [lenalidomide] (first compound 1 µM, partner dose 5 µM), the cell count came out at 91.8%. `O=c1[nH]nc(Sc2ncc([N+](=O)[O-])s2)n1-c1ccc2c(c1)OCCO2` + c1cc(-c2cnn3cc(-c4ccc(OCCN5CCCCC5)cc4)cnc23)ccn1 [Dorsomorphin] (first compound 1 µM, partner dose 2 µM) showed a cell count of 74.9%. The molecule `O=c1[nH]nc(Sc2ncc([N+](=O)[O-])s2)n1-c1ccc2c(c1)OCCO2` + COc1ccc2c(c1)CCC1C2CCC2(C)C(NCCCCCCN3C(=O)C=CC3=O)CCC12 [U73122] (first compound 1 µM, partner dose 2 µM) gave a cell count of 76.7%. With `C[C@@H]1CCN(C(=O)CC#N)C[C@@H]1N(C)c1ncnc2[nH]ccc12` + Oc1nc(-c2ccc(C(F)(F)F)cc2)nc2c1CSCC2 [XAV939] (first compound 5 µM, partner dose 10 µM), the cell count was 75.9%.
